Measurements reported in PubChem BioAssay AID360 (National Center for Advancing Translational Sciences (NCATS), 2006).
Among all 48,000 compounds or so, about 550 (1.1%) were called active. Roughly 4% stayed inconclusive and do not appear here. Cut-off read from the data, not from the text of the source: active = potency below about 15 µM; inconclusive = mostly about 16 µM to 33 µM; inactive = weaker than that. This is one part of the list.

What follows are compounds tested against Lysosomal acid glucosylceramidase (Homo sapiens) (UniProt P04062) (assay: Glucocerebrosidase). Conditions: purified enzyme, resorufin glucoside fluorescence (screen aimed at inhibitors), 20 min; series mostly up to 77 µM.
UniProt P04062, sequence (P04062 whole entry, looked up): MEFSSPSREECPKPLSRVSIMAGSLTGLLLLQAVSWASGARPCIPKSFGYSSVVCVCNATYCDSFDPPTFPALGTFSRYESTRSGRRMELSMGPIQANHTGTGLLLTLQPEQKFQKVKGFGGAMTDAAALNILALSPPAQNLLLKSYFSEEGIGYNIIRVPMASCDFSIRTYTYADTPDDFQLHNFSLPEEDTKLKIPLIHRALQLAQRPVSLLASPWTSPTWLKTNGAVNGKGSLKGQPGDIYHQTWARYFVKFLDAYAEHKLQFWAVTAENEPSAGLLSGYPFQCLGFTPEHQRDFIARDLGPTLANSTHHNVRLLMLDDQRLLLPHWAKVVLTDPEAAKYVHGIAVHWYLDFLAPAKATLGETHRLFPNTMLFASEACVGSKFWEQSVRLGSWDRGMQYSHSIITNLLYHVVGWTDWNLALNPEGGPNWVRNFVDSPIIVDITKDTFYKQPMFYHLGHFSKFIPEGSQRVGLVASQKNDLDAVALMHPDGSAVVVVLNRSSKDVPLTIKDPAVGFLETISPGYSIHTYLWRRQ
Outline: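 Normal human glucocerebrosidase (0.2 nM final) was assayed with resorufin β-D-glucopyranoside (30 uM final) in 50mM citric acid/KH2PO4, 10mM sodium taurocholate, 0.01% tween-20, pH 5.9. Compounds were titrated; fluorescence (Ex 548, Em 600) read after 20 min at RT.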
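Note: the screen sought inhibitors.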
Potency is the fitted concentration of half-maximal effect.

Which Potency does the source give for `CCc1ccc(NC2=NCC(=O)N2c2ccc3c(c2)OCCO3)cc1` here?
Its Potency is inactive: > 76.9 µM.

For `Cc1c(-c2ccccc2)nc2ccccc2c1C(=O)O`, which Potency is on record?
Its Potency is inactive: > 76.9 µM.

With `O=C(NCCC1=CCCCC1)C1CCCN(S(=O)(=O)c2ccc(F)cc2)C1` (stereo not given) as the compound, how does the Potency read?
Its Potency is inactive: > 76.9 µM.

`CCC1Oc2ccc(C)cc2N(CC(=O)NCCCN2CCCCC2CC)C1=O` (stereo not given) was tested. Which Potency did it give?
The Potency was inactive: > 76.9 µM.

`Cc1cc(C)c2nc(N3CCCC3)c(C#N)cc2c1` was tested. Which Potency did it give?
Its Potency is inactive: > 76.9 µM.

Which Potency does the source give for `O=C1CSc2ccccc2N1Cc1ccccc1F` here?
Its Potency is inactive: > 76.9 µM.

`c1cncc(-c2nnc(C3CCCCC3)o2)c1` was tested. Which Potency did it give?
Its Potency is inactive: > 76.9 µM.

Which Potency does the source give for `Cc1ccc(OCCn2c(=O)cnc3ccccc32)cc1` here?
The Potency was inactive: > 76.9 µM.

How did the Potency turn out when `Cc1ccc(-c2cc(C(=O)N3CCCC3)no2)cc1` was run?
The Potency was inactive: > 76.9 µM.

How did the Potency turn out when `Cc1noc(C)c1S(=O)(=O)N1CCC(Cc2ccccc2)CC1` was run?
The Potency was inactive: > 76.9 µM.

`Cc1cc(C)n(C(=O)C23CC4CC(CC(C4)C2)C3)n1` was tested. Which Potency did it give?
The Potency was inactive: > 76.9 µM.

With `C=C(C)Cn1c(CCCNC(=O)CC)nc2ccccc21` as the compound, how does the Potency read?
Its Potency is inactive: > 76.9 µM.

Which Potency does the source give for `Cc1cccn2c(=O)c(C=Nc3ccc(Cl)cc3)c(NCCO)nc12` here?
Its Potency is inactive: > 76.9 µM.

With `CCCn1c(=NC(C)=O)c(C#N)cc2c(=O)n3cccc(C)c3nc21` as the compound, how does the Potency read?
The Potency was inactive: > 76.9 µM.

How did the Potency turn out when `O=C(CC(=O)c1ccccc1)Nc1ccc2c(c1)OCCO2` was run?
The Potency was inactive: > 76.9 µM.

Which Potency does the source give for `Cc1ccc(NC(=O)c2cccc(N3C(=O)CCC3=O)c2)nc1` here?
Its Potency is inactive: > 76.9 µM.

`OC(COc1ccc2ccccc2c1)Cn1ccnc1` (stereo not given) was tested. Which Potency did it give?
The Potency was inactive: > 76.9 µM.

How did the Potency turn out when `COc1ccccc1NC(=O)Cc1noc(CSc2nnc(C)s2)n1` was run?
Its Potency is inactive: > 76.9 µM.

Which Potency does the source give for `CCCC12CN3CC(C)(CN(C1)C3c1ccc(OC(C)C)cc1)C2=O` (stereo not given) here?
The Potency was active: 1.97 µM.

`O=S(=O)(c1ccc(Br)s1)N1CCc2ccccc2C1` was tested. Which Potency did it give?
The Potency was inactive: > 76.9 µM.

Which Potency does the source give for `Cn1c(=O)[nH]c(=O)c2c1nc(CN1CCN(c3ccc(F)cc3)CC1)n2CCc1ccccc1` here?
The Potency was inactive: > 76.9 µM.

Which Potency does the source give for `CC(C)N(Cc1nc(-c2ccccc2)no1)C(=O)c1ccc(Br)o1` here?
Its Potency is inactive: > 76.9 µM.

Which Potency does the source give for `CCCS(=O)(=O)N1CCN(c2ccccc2F)CC1` here?
Its Potency is inactive: > 76.9 µM.

`O=C(Nc1ccc2c(c1)OCO2)c1ccccc1SCC(=O)N1CCCC1` was tested. Which Potency did it give?
Its Potency is inactive: > 76.9 µM.

For `O=C(OCc1cc(-c2ccccc2)no1)c1ccc2ccccc2n1`, which Potency is on record?
Its Potency is inactive: > 76.9 µM.

Which Potency does the source give for `Cc1ccc(O)c(C(=O)c2cnn(C(=O)Cc3csc(C)n3)c2)c1` here?
The Potency was inactive: > 76.9 µM.

With `CCOc1ccccc1C1C(C#N)=C(N)SC(N)=C1C#N` as the compound, how does the Potency read?
Its Potency is inactive: > 76.9 µM.

`O=C(CN1CCOCC1)Nc1c2c(nc3ccccc13)N(Cc1ccccc1)CC2` was tested. Which Potency did it give?
Its Potency is inactive: > 76.9 µM.

How did the Potency turn out when `CCn1c(SCC(=O)Nc2cc(C)on2)nnc1-c1cccs1` was run?
Its Potency is inactive: > 76.9 µM.

How did the Potency turn out when `CCOC1(C(F)(F)F)NC(=O)N(Cc2ccc(OC)cc2)C1=O` (stereo not given) was run?
Its Potency is inactive: > 76.9 µM.

With `CN=C1SC(CC(=O)Nc2sc3c(c2C#N)CCCC3)C(=O)N1C` (stereo not given) as the compound, how does the Potency read?
The Potency was inactive: > 76.9 µM.

Which Potency does the source give for `CSc1nc(-c2ccccc2)nc(SC)c1C(C)=O` here?
The Potency was inactive: > 76.9 µM.

Which Potency does the source give for `CCc1nnc(NS(=O)(=O)c2ccc(N3C(=O)C4CC=C(Cl)CC4C3=O)cc2)s1` (stereo not given) here?
The Potency was inactive: > 76.9 µM.

`O=C(OCCN1CCCCC1)c1cc2ccccc2o1` was tested. Which Potency did it give?
The Potency was inactive: > 76.9 µM.

`CCCCn1c(SCC(=O)N2CCCCC2)nc2cc(S(N)(=O)=O)ccc21` was tested. Which Potency did it give?
Its Potency is inactive: > 76.9 µM.

With `CCCCC(=O)Nc1ccc(NC(=O)C2CC2)cn1` as the compound, how does the Potency read?
The Potency was inactive: > 76.9 µM.

Which Potency does the source give for `O=C1c2ccc(-c3nc4ccccc4o3)cc2C(=O)N1Cc1cccnc1` here?
Its Potency is inactive: > 76.9 µM.

How did the Potency turn out when `Cc1ccnc2nc(C(=O)OCCOc3ccccc3)nn12` was run?
The Potency was inactive: > 76.9 µM.

How did the Potency turn out when `Cc1nnc(NC(=O)NCN2C(=O)C3C4C=CC(C4)C3C2=O)s1` (stereo not given) was run?
Its Potency is inactive: > 76.9 µM.

For `N#Cc1cc2ccccc2nc1SCC(=O)Nc1ccccc1N1CCOCC1`, which Potency is on record?
Its Potency is inactive: > 76.9 µM.

Which Potency does the source give for `O=S(=O)(c1ccc(S(=O)(=O)N2CCCC2)cc1)N1CCCCCC1` here?
Its Potency is inactive: > 76.9 µM.

For `CCCC(=O)Nc1c2c(nn1-c1ccc(C)cc1C)CSC2`, which Potency is on record?
The Potency was inactive: > 76.9 µM.

With `CCCn1c(-c2ccc(F)cc2)n[nH]c1=S` as the compound, how does the Potency read?
The Potency was inactive: > 76.9 µM.

How did the Potency turn out when `COc1ccc(-n2[nH]c(C)cc2=O)cc1` was run?
Its Potency is inactive: > 76.9 µM.

How did the Potency turn out when `NC(=O)c1ccsc1NC(=O)CSc1ccccc1F` was run?
The Potency was inactive: > 76.9 µM.

For `C(=C\c1ccccc1)/CSc1nnc(-c2cccnc2)n1Cc1ccco1`, which Potency is on record?
The Potency was inactive: > 76.9 µM.

With `CCOc1ccc(C(CC(=O)O)NC(=O)COc2ccccc2)cc1` (stereo not given) as the compound, how does the Potency read?
The Potency was inactive: > 76.9 µM.

Which Potency does the source give for `CCOC(=O)C1=C(C)C(c2ccc(OC)cc2OC)NC(=O)N1` (stereo not given) here?
Its Potency is inactive: > 76.9 µM.

With `COCCn1nnnc1CN(CCc1ccccc1)Cc1cc2ccc(C)cc2[nH]c1=O` as the compound, how does the Potency read?
The Potency was inactive: > 76.9 µM.

For `CC(C)(C)NC(=O)c1ccc(NC(=O)C2COc3ccccc3O2)cc1` (stereo not given), which Potency is on record?
The Potency was inactive: > 76.9 µM.

With `O=c1cc(CSc2ccccn2)c2ccccc2[nH]1` as the compound, how does the Potency read?
The Potency was inactive: > 76.9 µM.

Which Potency does the source give for `CCn1nnnc1SCC(=O)N1CCOCC1` here?
The Potency was inactive: > 76.9 µM.

With `O=C(CN1C(=O)C2(OCCCO2)c2ccccc21)NCCc1ccccc1` as the compound, how does the Potency read?
Its Potency is inactive: > 76.9 µM.

For `O=C(NCC(=O)N1CCC(N2CCCCC2)CC1)C1CCCCC1`, which Potency is on record?
The Potency was inactive: > 76.9 µM.

Which Potency does the source give for `CCOC(=O)Cn1c(=O)n(CC(=O)OCC)c2ccccc21` here?
Its Potency is inactive: > 76.9 µM.

How did the Potency turn out when `Cc1cc(C)cc(-n2nnc(C(=O)NCc3ccccc3Cl)c2N)c1` was run?
The Potency was inactive: > 76.9 µM.

With `CCC(C)NC(=O)CNC(=O)Cn1c(C)cc2ccccc2c1=O` (stereo not given) as the compound, how does the Potency read?
The Potency was inactive: > 76.9 µM.

For `CCCCN(CCCC)S(=O)(=O)c1ccc(OC)c2ncccc12`, which Potency is on record?
Its Potency is inactive: > 76.9 µM.

For `CCC(C)Oc1cccc(OCCCCN2C(=O)NC(C)(C)C2=O)c1` (stereo not given), which Potency is on record?
The Potency was inactive: > 76.9 µM.

How did the Potency turn out when `O=C(NCc1ccco1)C(c1ccco1)N(CCc1ccccc1)C(=O)Cn1nnc2ccccc21` (stereo not given) was run?
Its Potency is inactive: > 76.9 µM.
